In PubChem BioAssay (NCI):
“And” between values parts separate entries of the source, which are not always exact repeats. Equal entries are not always repeated.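 Test compounds were applied to cells in 96-well plates for 48 hours at 5 doses. Abbreviation: GI50, concentration required for 50% inhibition of growth. The concentration for full growth arrest is given as TGI.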

System: NCI-H322M lung
Test: NCI-60 cell line screen, 48 h

First: CC(CNCCCNCCNCCCNCO)[N+](=O)[O-] (centres undefined)
Second: C=CC/C(=C\COP(=O)(OCc1ccc([N+](=O)[O-])o1)N(C)CCCCCl)CC/C=C(\C)CCC=C(C)C (centres undefined)
The TGI of the first is higher: greater than 100 µM for the first, 28 µM for the second.

First: C[C@@H]1C2=CC[C@@]3(C)C(CCC3[C@H](C)[C@H]3C[C@@]4(C)O[C@@](c5cccnc5)(O3)OC4(C)C)[C@@H]2C2OC2[C@@]12CCC(=O)O2 (some centres undefined)
Second: C[C@]12CC[C@H]3[C@@H](C[C@@H]4SC(Nc5ccccc5)=N[C@@]45CC(O)CC[C@]35C)[C@@H]1CCC2O (some centres undefined)
The TGI of the first is higher: greater than 100 µM for the first, 11.1 µM for the second.

`COc1ccccc1N=N/C(=N\NC(=O)c1ccc(C)cc1)c1ccc(N(CCC#N)CCC#N)cc1C` and `Cc1c(N/C=C(\C#N)C(=O)c2ccc(Cl)cc2)c(=O)n(-c2ccccc2)n1C` cannot be ordered by TGI: greater than 100 µM for the first, greater than 100 µM for the second.

`Nc1c(-c2ccccc2[N+](=O)[O-])nc2ccccn12` and `O=[N+]([O-])c1cc(Cl)ccc1OCc1ccccc1` cannot be ordered by TGI: greater than 100 µM for the first, greater than 100 µM for the second.

Going from `Oc1cccc(/C=N/Nc2nnc(N/N=C/c3cccc(O)c3)c3ccccc23)c1` to `COc1cc(S(=O)(=O)Nc2ccc(-c3csc(N4C(=O)C(Cl)C4c4ccccc4)n3)cc2)ccc1Cl` (centres undefined), the TGI rises from 69.1 µM to greater than 100 µM.

First: O=[n+]1c2ccccc2n([O-])c2cc(Cl)ccc21
Second: O=[N+]([O-])/C(C(Cl)=C(Cl)Cl)=C(\Nc1ccccc1)n1nnc2ccccc21
The TGI of the first is lower: 52 µM for the first, greater than 100 µM for the second.

`CC1(C)C2CC3C4CC5(Nc6ccccc6C5N41)[C@]3(C)CC2=O` (some centres undefined) and `O=[N+]([O-])C(=C1Nc2ccccc2N1)/C(Cl)=C(/Cl)N1CCOCC1` cannot be ordered by TGI: greater than 50 µM for the first, greater than 100 µM for the second.

`C[C@]1(Cn2ccnn2)C(C(=O)O)N2C(=O)CC2S1(=O)=O` (some centres undefined) and `Cc1cc(C(=O)NC(CCC(=O)O)C(=O)O)sc1CCC1CNc2nc(N)[nH]c(=O)c2C1` (centres undefined) cannot be ordered by TGI: greater than 100 µM for the first, greater than 100 µM for the second.

`COC(=O)N/N=C(/CCC(=O)Nc1ccc(C)c(C)c1)CC(=O)C(C)(C)C` and `Cc1cc(C(=O)O)c(C)n1-c1cccc(C(=O)O)c1` cannot be ordered by TGI: greater than 100 µM for the first, greater than 100 µM for the second.

`CCOC(=O)C1=C(C)N(NC(N)=O)C(C)(O)C12CCOC2=O` (centres undefined) and `CCOC(=O)c1c(-c2ccc(Br)cc2)ccn1C` cannot be ordered by TGI: greater than 100 µM for the first, greater than 10 µM for the second.

Going from `NCCCCC(=O)c1cccnc1` to `CC(C)C(C/C=C1/CC(CO)(COC(=O)c2ccccc2)OC1=O)C(C)C` (centres undefined), the TGI falls from greater than 100 µM to 28.3 µM.

First: CC1(C)C(=O)/C=C\C(=O)C(C)(C)C(=O)/C=C\C(=O)C(C)(C)C(=O)/C=C\C(=O)C(C)(C)C(=O)/C=C\C1=O
Second: CC(C)(C)OC(=O)C1=C2C=C(O)C=CC2(C)N(Cc2ccccc2)C1=N (centres undefined)
The TGI of the first is higher: greater than 82.8 µM for the first, 30.6 µM for the second.

`COc1ccc(N=Nc2c(C)c(C#N)c(=S)n(C3OC(CO)C(O)C(O)C3O)c2C)cc1` (centres undefined) and `CCOc1ccc(N=NS(=O)(=O)O)cc1` cannot be ordered by TGI: greater than 100 µM for the first, greater than 100 µM for the second.

Going from `CC(/C=C/c1ccccc1)=N\NC(N)=S` to `O=c1c(NO)c([N+](=O)[O-])cnn1-c1ccccc1`, the TGI falls from greater than 100 µM to 13 µM.

Compared with `C/C(=N\NC(=S)N1CCCCCCCCCCCC1)c1ccccn1`, `C/C(=N\N=C(\[Se])N(C)C)c1ccccn1` is 7.1-fold higher in TGI: 1.73 µM for the first, 12.2 µM for the second.

First: CCC(=O)Nc1ccccc1C#C/C=C\C#Cc1ccccc1C(F)(F)F
Second: CN(C)CC(C(=O)Cc1ccccc1)c1ccccc1 (centres undefined)
The TGI of the first is higher: greater than 50 µM for the first, 26.6 µM for the second.

`Cc1cccc(N2C(=O)C(=O)C(c3nc4ccccc4s3)/C(=N/NC(=S)NN)C2=O)c1C` (centres undefined) and `O=c1[nH]nc(Cn2c3ccc(Br)cc3c3nc4ccccc4nc32)n1C1CCCCC1` cannot be ordered by TGI: greater than 100 µM for the first, greater than 100 µM for the second.

Going from `CCN(CC)CCN(Cc1ccc(F)cc1)c1ccc(CO)c(Cl)c1` to `Oc1ccc(CCNCc2cc3c(cc2Br)OCO3)cc1`, the TGI rises from 6.36 µM to greater than 100 µM.

`N=C(N)c1ccc(NCCOCCNc2ccc(C(=N)N)cc2)cc1` and `COc1ccc(/C=C2\Sc3nnc(CNc4ccc(Cl)cc4)n3N=C2c2cc(F)c(Cl)cc2Cl)cc1OC` cannot be ordered by TGI: greater than 100 µM for the first, greater than 100 µM for the second.

`O=[N+]([O-])c1ccccc1C=NC12CC3CC(CC(C3)C1)C2` and `Nc1c(N2CCOCC2)c(=O)nc2[nH]/c(=C\c3ccccc3)c(=O)n12` cannot be ordered by TGI: greater than 100 µM for the first, greater than 100 µM for the second.

`CC(=O)C(CN(C)C)C(c1ccccc1)c1c(O)c2ccccc2oc1=O` (centres undefined) and `O=C(O)CNn1c(SCC(=O)O)nnc(/C=C/c2c(O)ccc3ccccc23)c1=O` cannot be ordered by TGI: greater than 100 µM for the first, greater than 100 µM for the second.

`CN(C)c1ccc(-c2ccc(N(C)C)c3n[se]nc23)c2n[se]nc12` and `Cc1ccc(N=NN(C)C(=O)C(C)N)cc1` (centres undefined) cannot be ordered by TGI: greater than 100 µM for the first, greater than 100 µM for the second.

`SCc1ccc(CS)s1` and `O=C(NCCN1CCCCC1)c1ccc(I)cc1` cannot be ordered by TGI: greater than 100 µM for the first, greater than 100 µM for the second.

`CCN(CC)C(=O)N1CCN(C=S)CC1` and `O=C(CCCl)NNC1=NCCCCN1` cannot be ordered by TGI: greater than 100 µM for the first, greater than 100 µM for the second.

Going from `COc1cc2c(cc1OC)NC(=O)NC(Cc1ccc3c(c1)OCO3)CC2` (centres undefined) to `CN1C=Cc2nccc3cc4c(c1c23)OCO4`, the TGI falls from greater than 100 µM to 11.3 µM.

Going from `NC(Cc1ccc(S(=O)(=O)O)cc1)C(=O)NC(Cc1ccc(S(=O)(=O)O)cc1)C(=O)NC(Cc1ccc(S(=O)(=O)O)cc1)C(=O)O` (centres undefined) to `COC1=CC(=O)c2c(c(COP(=O)(N(C)CCBr)N(C)CCBr)cn2C)C1=O`, the TGI falls from greater than 100 µM to 2.57 µM.

`CC1(C)OCC([C@H]2CC23SCCCS3)O1` (some centres undefined) and `CC1=C(Cl)C=CP(=O)(OC(C)C)C1` (centres undefined) cannot be ordered by TGI: greater than 100 µM for the first, greater than 100 µM for the second.

Compared with `O=[n+]1c2ccccc2n([O-])c2cc(Cl)ccc21`, `Cc1cc(C(=O)O)c(C)n1-c1cccc(C(=O)O)c1` is higher in GI50: 18 µM for the first, greater than 100 µM for the second.

Compared with `C[C@]1(Cn2ccnn2)C(C(=O)O)N2C(=O)CC2S1(=O)=O` (some centres undefined), `C[C@]12CC[C@H]3[C@@H](C[C@@H]4SC(Nc5ccccc5)=N[C@@]45CC(O)CC[C@]35C)[C@@H]1CCC2O` (some centres undefined) is lower in GI50: greater than 100 µM for the first, 2.88 µM for the second.

First: C=CC/C(=C\COP(=O)(OCc1ccc([N+](=O)[O-])o1)N(C)CCCCCl)CC/C=C(\C)CCC=C(C)C (centres undefined)
Second: CCN(CC)CCN(Cc1ccc(F)cc1)c1ccc(CO)c(Cl)c1
The GI50 of the first is 10-fold lower: 0.138 µM for the first, 1.44 µM for the second.

Going from `CCC(=O)Nc1ccccc1C#C/C=C\C#Cc1ccccc1C(F)(F)F` to `CN(C)CC(C(=O)Cc1ccccc1)c1ccccc1` (centres undefined), the GI50 rises from 2.94 µM to 12.3 µM (4.2-fold).

With `N=C(N)c1ccc(NCCOCCNc2ccc(C(=N)N)cc2)cc1` the GI50 was greater than 100 µM.

In the case of `Cc1cc(C(=O)NC(CCC(=O)O)C(=O)O)sc1CCC1CNc2nc(N)[nH]c(=O)c2C1` (centres undefined), the GI50 is reported as 0.0598 µM and 0.41 µM.
